# From publication PMC4336329 (PLoS ONE, 2015)
# In all, about 310,000 compounds went through this assay and about 2,200 (0.71%) showed an effect of 50% or more. Effects have a minus sign here. The list shows a part of the results.
# Biological target: human ether-à-go-go-related gene (hERG) potassium channel (human, UniProt Q12809)
# Experiment: primary screen, population patch clamp on CHO cells stably expressing hERG
# Chain of human ether-à-go-go-related gene (hERG) potassium channel (Q12809 whole entry, looked up): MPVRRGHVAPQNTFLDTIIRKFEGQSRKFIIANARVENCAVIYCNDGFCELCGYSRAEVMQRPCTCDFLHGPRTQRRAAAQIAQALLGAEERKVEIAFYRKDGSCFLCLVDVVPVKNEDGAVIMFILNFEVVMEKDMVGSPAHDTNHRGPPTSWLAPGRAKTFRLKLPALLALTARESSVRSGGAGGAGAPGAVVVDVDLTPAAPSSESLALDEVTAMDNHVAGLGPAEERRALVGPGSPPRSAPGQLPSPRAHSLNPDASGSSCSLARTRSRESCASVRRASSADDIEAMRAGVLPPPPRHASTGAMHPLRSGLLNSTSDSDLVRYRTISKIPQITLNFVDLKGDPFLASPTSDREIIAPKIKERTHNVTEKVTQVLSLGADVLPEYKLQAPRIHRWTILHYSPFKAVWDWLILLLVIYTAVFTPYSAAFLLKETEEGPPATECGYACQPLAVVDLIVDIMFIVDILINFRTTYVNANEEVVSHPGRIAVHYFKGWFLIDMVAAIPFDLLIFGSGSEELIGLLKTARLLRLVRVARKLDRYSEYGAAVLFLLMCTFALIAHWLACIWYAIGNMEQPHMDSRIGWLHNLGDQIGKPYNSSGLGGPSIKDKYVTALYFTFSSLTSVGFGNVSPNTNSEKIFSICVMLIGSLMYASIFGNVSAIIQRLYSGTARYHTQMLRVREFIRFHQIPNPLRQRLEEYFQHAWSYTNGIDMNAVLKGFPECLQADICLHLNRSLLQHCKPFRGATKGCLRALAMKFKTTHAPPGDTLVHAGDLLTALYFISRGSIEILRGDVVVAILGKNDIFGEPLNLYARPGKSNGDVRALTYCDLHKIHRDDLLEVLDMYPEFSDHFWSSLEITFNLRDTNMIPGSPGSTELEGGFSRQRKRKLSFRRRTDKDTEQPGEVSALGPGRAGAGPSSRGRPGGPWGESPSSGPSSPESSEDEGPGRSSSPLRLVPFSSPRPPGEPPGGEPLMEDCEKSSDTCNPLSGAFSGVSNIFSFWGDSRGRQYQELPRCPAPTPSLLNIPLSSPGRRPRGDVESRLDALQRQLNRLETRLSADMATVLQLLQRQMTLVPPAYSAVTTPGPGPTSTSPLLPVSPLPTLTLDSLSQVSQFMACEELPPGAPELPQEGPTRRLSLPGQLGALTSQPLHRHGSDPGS
row,SMILES,"hERG current change (%, negative = inhibition) at 1uM"
1,COc1ccc(NC(=O)NC(C)c2ccc3c(c2)OCO3)cc1OC (stereo not drawn),10.8%
2,COc1cccc(C(=O)Nc2ccc(NC(=O)C(C)C)nc2)c1,7.25%
3,CC(C)Oc1ccc(CCC(=O)N/N=C/c2ccc3c(c2)OCO3)cc1,16.1%
4,COc1ccc(-n2c(SCC(=O)Nc3ccccc3)nc(O)cc2=O)cc1,11.6%
5,Cc1ccc(/C=N/NC(=O)CCCOc2ccc(Cl)cc2Cl)cc1,8.28%
6,Cc1cccc(NC(=O)C2(c3cccs3)CCOCC2)n1,34.6%
7,CCOc1ccc(C(=O)Nc2nnc(SCC(=O)NCC3CCCO3)s2)cc1 (stereo not drawn),9.93%
8,COC(=O)c1[nH]c2cc(OC)ccc2c1NC(=O)CN1CCC(C(N)=O)(N2CCCCC2)CC1,3.5%
9,CCOc1ccc2c(c1)n(CO)c(=S)n2CO,2.29%
10,C[C@H](NC(=O)c1[nH]cnc1C(=O)Nc1ccc(Cl)cc1)c1ccccc1,8.87%
11,C=CCN1CN(CCc2ccccc2)CNC1=S,15.4%
12,Cc1cccc(OCc2nnc(SCC(=O)NC3CCCC3)n2C)c1,4.8%
13,O=C(COc1ccc(Cl)cc1)NCCCNC(=O)c1cnccn1,8.85%
14,CC1CCN(C(=O)CSc2nc3c(c(=O)n2C)SC(C)C3)CC1 (stereo not drawn),13.3%
15,COc1ccc(-c2cc3c(=O)n(CC(=O)NCc4ccccc4OC)ncn3n2)cc1,-12.7%
16,Nc1ccc(-c2nc3ccc(C(=O)O)cc3s2)cc1,16.7%
17,O=C(C1CCCO1)N1CCN(C(c2ccccc2)c2ccccc2)CC1 (stereo not drawn),11.6%
18,CC(C)(C)c1ccc(OCCC(=O)NNC(=O)c2ccccc2)cc1,2.62%
19,CCN(CC)C(=O)COc1ccc(/C=N/NC(=O)c2cc(-c3ccccc3OC)nc3ccccc23)cc1OC,1.56%
20,O=C(COC(=O)c1ccc(Cl)nc1)NCc1ccco1,19.4%
21,CN(C(=O)C1CCOC1)c1nnc(C2CCOC2)s1 (stereo not drawn),9.56%
22,Cc1cc(C)c2c(=O)[nH]n(C3CCOC(C)(C)C3)c2n1 (stereo not drawn),15.9%
23,CC1CC(C)CN(S(=O)(=O)c2ccc(Cl)cc2)C1 (stereo not drawn),8.74%

row,SMILES,"hERG current change (%, negative = inhibition) at 1uM"
1,COc1cccc(CNC(=O)C2CCC(CNS(=O)(=O)c3cccc4nsnc34)CC2)c1 (stereo not drawn),7.46%
2,CCc1cccc(N(C(=O)c2csnn2)C(C(=O)NC2CCCCC2)c2ccncc2)c1 (stereo not drawn),6.54%
3,Cc1nn(C)c(NC(=O)c2ccccc2Cl)c1Cl,13.8%
4,CC(C)OCC(O)CN1CCN(CCN2C(=O)c3cccc4cccc(c34)C2=O)CC1.Cl (stereo not drawn),-16.3%
5,CC(C)(C)CC(=O)Nc1ccc(S(=O)(=O)N2CCCC2)cc1,9.63%
6,COc1ccc(N2CC(NS(=O)(=O)c3cccs3)CC2=O)cc1 (stereo not drawn),17.2%
7,CC1Cc2ccccc2N1C(=O)CN1CCN(S(=O)(=O)c2cccs2)CC1 (stereo not drawn),7.12%
8,CNC(=O)C1CC(=O)N(c2ccc(OCC(=O)NCc3ccccc3)cc2)C1 (stereo not drawn),15.3%
9,COC(=O)c1ccc(OC(=O)C2CC(=O)N(c3ccc(C)cc3C)C2)cc1 (stereo not drawn),7.34%
10,NC(=O)c1ccc(NC(=O)CNC(=O)c2sc3ccccc3c2Cl)cc1,15.5%
11,CC1(C)Cc2c(cnn2-c2ccc(F)cc2)C(NC(=O)CCCN2CCCCC2=O)C1 (stereo not drawn),8.56%
12,Cc1c(Cc2ccccc2)c(=O)oc2cc(OCC(N)=O)ccc12,6.9%
13,COc1ccc(CN2CCOCC2)cc1,3.2%
14,Cc1cccc2nc3c(nc12)CCCC3,0.436%
15,Cc1cc(Cl)c(S(=O)(=O)NC(C(=O)O)C(C)C)cc1OCC(=O)NC1CCCCC1 (stereo not drawn),12.1%
16,O=C(CCCCO)c1ccc(O)c(Cl)c1,6%
17,CC(=O)Oc1ccc(/C(C)=N/N2CCN(Cc3ccc(C)cc3)CC2)cc1,-69.8%
18,C=CCN1C(=O)N(CC=C)c2cccc3cccc1c23,13.4%
19,OCCCc1nc2n(n1)C(c1ccccc1)C=C(c1ccc(F)cc1)N2 (stereo not drawn),8.86%
20,COCCn1cnc2c1c(=O)n(CC(=O)NN)c(=O)n2Cc1ccccc1,11.8%
21,CCN1C(=O)[C@@H]2[C@@H](c3ccc(SC4CCCCC4)c(OC)c3)N3CCC[C@@]3(C(=O)OC)[C@@H]2C1=O.O=C(O)C(F)(F)F,7.52%
22,O=C(N/N=C/c1c[nH]c2ccc(Br)cc12)c1ccn(Cc2ccc(Cl)cc2Cl)n1,8.74%
